According to the RNAGym collection of RNA variant scans (doi:10.1073/pnas.2313332121):
Variants at the background level are over-represented here.

B1: TPR 5TU (parent)
chain: GGAUCUUCUCGAUCUAACAAAAAAGACAAAUCUGCCACAAAGCUUGAGAGCAUCUUCGGAUGCAGAGGCGGCAGCCUUCGGUGGCGCGAUAGCGCCAACGUUCUCAACUAUGACACGCAAAACGCGUGCUCCGUUGAAUGGAGUUUAUCAUG

Variants of: B1
Test: polymerase ribozyme fitness, log enrichment relative to wild type (log ratio); higher = more active; in vitro selection for triplet polymerase activity
Method in brief: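 PCR was used to build mutant libraries for each subunit of a heterodimeric triplet polymerase ribozyme, which were then transcribed. A single in vitro selection round, in triplicate, used a frozen incubation at −7 °C and recovered extended constructs by gel excision, streptavidin beads and RT-PCR. Fitness is the logarithm of genotype enrichment relative to wild-type enrichment, averaged over replicates with inverse-variance weights. The logarithm is base 2, and after Illumina sequencing only genotypes with ≥10 input reads and ≥1 read per output were kept.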

Variant	polymerase ribozyme fitness (log ratio)
A29G C35A U55A G62A C95A A110G A138C A150G	≤ -4.2
A28U C57A G68A U104A C118G U139C G140A U145C	≤ -4.2
A29C G34C U82G C118A A138C	≤ -4.2
A29C U33G G83U U90A U127C A138U U148A	≤ -4.2
A29G C36U U44C C116A A121C U139A G140A	≤ -4.2
A29C G46A G86C	≤ -4.2
A29C U56A C93A	≤ -4.2
A29U C32A A41U G71C C85U C87U A98C	≤ -4.2
A29U C96U A107G G117A U130G	≤ -4.2
A29C C32A	≤ -4.2
A29U C32G C43U G46A A52G U56A A66G A73G C87G U144A	≤ -4.2
A28U U33G U55A U101G A113U U144A	≤ -4.2
A29G A40C C87G G100C A150C	≤ -4.2
A29C C38G A41G U135A	≤ -4.2
A29C U53A U55A C72U C85A U109G U134A G136A U144G C149A	≤ -4.2
A29U C95U G117A A121U G140U	≤ -4.2
A29C A64C U90C	≤ -4.2
A29G A41C U82G A106C	≤ -4.2
A29C C132A U139C G143A A150U	≤ -4.2
A29C C32G C57A U77A G88C A115U U130A	≤ -4.2
A29G G46C A47C C132U U146A	-4.16
A29C A40G A52C U53A C76A A115G U144G	≤ -4.2
A28U G58C C96A A97G U144A U145G	≤ -4.2
A29G C51U G62A G84A U139G	≤ -4.2

Variant	polymerase ribozyme fitness (log ratio)
A28U G67A U77C G92U U144A	≤ -4.2
A29C C35A A66C C69G C87U C99A	≤ -4.2
A29U C69A G84A G143U	≤ -4.2
A28U U31C G50A C96U U134A	≤ -4.2
A29C A52G U53A C93U G124A	≤ -4.2
A29C U33G G48C C54A U55G C87U	≤ -4.2
A29U A47C U55G C87U A98G	≤ -4.2
A28U U56A G94C U134A U135G A150C	≤ -4.2
A29G G58C A60C G71A C129G	≤ -4.2
A29G U77C C85A C108G	≤ -4.2
A29U G58A G92U C99U G141C	≤ -4.2
A29C U31G C54A U104C	≤ -4.2
A29U C87G C95U C131A G143C	≤ -4.2
A29U A60G G92C	≤ -4.2
A28U G42C A52C G100C G117C	≤ -4.2
A29C C32U C35G A66U C87A G94C A107U C125U	≤ -4.2
A29C C35A G94A C123U	≤ -4.2
A29U C32U A39U G42A	≤ -4.2
A29U A91C A120G	≤ -4.2
A28U U31A G67C C76A C93G C132U	≤ -4.2
A29C A39C U53A A122G C123A U135G U146A	≤ -4.2
A29U C57G G59A A73G C95U C96G C99U G100A G124A C149G	≤ -4.2
A29C C57A C93U A120U U148A	≤ -4.2
A29U A142G C149U	≤ -4.2

Variant	polymerase ribozyme fitness (log ratio)
A29G A64U C76G C93G G126C C149A	≤ -4.2
A28U U55A	-4.13
A28U C87G U127A G133C U139A	-4.15
A29U A49C G68U A73C A91C C103G	≤ -4.2
A29C A30G C51U G81A G126U U146G	≤ -4.2
A29C C76A C87G	≤ -4.2
A29G A47U C76G U102A C105U	≤ -4.2
A29G C57U C95G C118U	≤ -4.2
A29G C36A A47C G50C C76A C85U C118A A121U U135G	≤ -4.2
A29U C36A U55A G65C C93G C96G C116U C118A U135G A137G	≤ -4.2
A29U C87G	≤ -4.2
A29U C87A	≤ -4.2
A29U A49C A60U C76U C96A A106U A142C	≤ -4.2
A29G U45A C96A A110U A137C	≤ -4.2
A29G G50C U55G A66U U102G	≤ -4.2
A29U A89U G94A C116G G141A	≤ -4.2
A29C C87A G100A	≤ -4.2
A29G C79A G83U G94C A120G	≤ -4.2
A29G G68U A91G	≤ -4.2
A28U G46C C51U	≤ -4.2
A29U A40G U53A U77C C93G A137G G141A	≤ -4.2
A28U G65U U82G U101G C103A G152U	≤ -4.2
A29U A41C U61A G67U G86U G92A C93A G133C	≤ -4.2
A29U C87A C99G	≤ -4.2

Variant	polymerase ribozyme fitness (log ratio)
A29C G58C G81A G88A	≤ -4.2
A29C G58C G88U C114U C116A C118U	≤ -4.2
A29U A40G G50C C72U G86A A91C	≤ -4.2
A29G U61A U139G A142U	≤ -4.2
A29U A40C G46A G67A G81A C85G A113C A137G	≤ -4.2
A29G A37G A52U C116U	≤ -4.2
A28U U102G	≤ -4.2
A29U A39G C85A A120C U146G	≤ -4.2
A29U A91C C96U A97U	≤ -4.2
A29C C96G A121G U151C	≤ -4.2
A29C A49C C93U A115U G133C	≤ -4.2
A29U A40C U53A A60C C93A	≤ -4.2
A29U A37C	≤ -4.2
A29C C36A U55A U61G C87A	≤ -4.2
A28U U55G C85G G88A A89U C103U G143C	≤ -4.2
A28U G59U G70A C93G C95A A107U G117C A121G	≤ -4.2
A29G C69U	≤ -4.2
A29G C85A	≤ -4.2
A29U A39C A40U U45G U77G	≤ -4.2
A29C A39U A52C U101G C125G G126A G143U U146C	≤ -4.2
A29G U55G C57G C87A A107G	≤ -4.2
A28U U33G A41C G86A U111A C116A C123U	≤ -4.2
A29G G112C U135A A138G U146G	≤ -4.2
A29C U53A	≤ -4.2

Variant	polymerase ribozyme fitness (log ratio)
A29C U77G G94U G136U U139C	≤ -4.2
A29U G34C A47U C57A	≤ -4.2
A29U C85A	≤ -4.2
A29G A52C A73C G92C C105A	≤ -4.2
A28U G62C C87A	≤ -4.2
A28U U44G G50U C87G A91U C108G A115G G117C C129U U134G	≤ -4.2
A29U C95U U130G	≤ -4.2
A28U C99A	-4.15
A29G U55G C75G A89C G141C	≤ -4.2
A29C G58A G83A C118U	≤ -4.2
A28U C63G G83U C87U U111G	≤ -4.2
A29U A41C C54A G84A G126U G141A	≤ -4.2
A29G C96U G124A	≤ -4.2
A29C C63U G65U U144G	≤ -4.2
A29G G34A A49U G59U C76U C108A A119G	≤ -4.2
A29G U78G C95U	≤ -4.2
A29G C69G A89U C96A	≤ -4.2
A29U A30U G42U C85U A107U	≤ -4.2
A29U C54G G84U C85G U134G	≤ -4.2
A29U C35U C54U U56A U90A A106C A121U	≤ -4.2
A29G A91U	≤ -4.2
A29U A73G G80C A122U G133A	≤ -4.2
A29U G48U U61G G83C	≤ -4.2
A29C U56C G58C C79G A121G G126A U144A	≤ -4.2

Variant	polymerase ribozyme fitness (log ratio)
A29C C43U G46U G59A C85U	≤ -4.2
A29C A39C C51U C57A G67A C95G	≤ -4.2
A29U C38G A52U	≤ -4.2
A29U A60G G65C G70U C76A U82C C87G G126U	≤ -4.2
A29G A39G A49G G50A U61A C85G G88A A97C G143U	≤ -4.2
A29C C75A G80A G92C A97U G100C A119U U146C	≤ -4.2
A29C U33C U44A G80U C85U C93U G136U	≤ -4.2
A29G A37U A47U U55A G84U A89G A120C G140C U144G	≤ -4.2
A28U G83A A91G A115U U145A	≤ -4.2
A29G C35A U56C C69G G71U A91G A98U A138G	≤ -4.2
A29C A40U G80U C87G U104G	≤ -4.2
A29U C36A A47C C118U U146C	≤ -4.2
A29C G59U G92C C96A A107G C125U U127G	≤ -4.2
A29C G83C G100C C116A C118G	≤ -4.2
A28U G34U U56A G86C U109C G124U U130C A137C G143U	≤ -4.2
A28U U33C U45A C75G C95U C125U	≤ -4.2
A29U C43U C95A C125A	≤ -4.2
A28U G42U G59C A64C U78C C87A	≤ -4.2
A29G C54A C95G G133U	≤ -4.2
A28U G42A G50C A64G C79U G83U U134A A138U U144A	≤ -4.2
A29U C96U G136U	≤ -4.2
A29C C96G G143A	≤ -4.2
A29G U33A U55A G59U C105G A119C U127G	≤ -4.2
A29U C35U G48A U61A C96U A106U A122C	≤ -4.2

Variant	polymerase ribozyme fitness (log ratio)
A29C A39G U56A C79U	≤ -4.2
A29G G50A G67U C75G C85A C123G C125G C132U A142C	≤ -4.2
A29C A60C G83U A107U A142C	≤ -4.2
A29C U33A A41U G42A G83C C96U C108G	≤ -4.2
A29G G62U G141C	≤ -4.2
A29C U55A G67A G83C G124A G126U A138C	≤ -4.2
A28U G94C G143U G152C	≤ -4.2
A28U G86A A89G A120C A142C G143A	≤ -4.2
A29G G68A G128U G133C	≤ -4.2
A29U C36U G67A C69U C95G G124C A137U	≤ -4.2
A28U C63U G92A C103U U148G	≤ -4.2
A29U A47C A89G C95G C108A G133C A138G	≤ -4.2
A29G U56C C85G	≤ -4.2
A29C A30U G42U C93U C105G U139G	≤ -4.2
A29C A39U A52U A60C C75U C95A A113U U139C G143U	≤ -4.2
A28U G46C A52G C54U U56A C95A C108U C129G	≤ -4.2
A29U C76U C93U U101G U130A	≤ -4.2
A29U C51G G58C G71A A91G C95A C103G U151A G152A	≤ -4.2
A29C C54U C85G G86A C95G C103G G141U	≤ -4.2
A29U A47C C54U C93G G117U G128U	≤ -4.2
A28U U45A C57U A60G C75G G94A G126C	≤ -4.2
A29C A40U C87U U104G G143C	≤ -4.2
A29U C69A G84A G141A	≤ -4.2
